# Test results as given in PubChem BioAssay AID1466 (National Center for Advancing Translational Sciences (NCATS), 2008).
# The whole screen tested about 200,000 compounds, of which about 10 (0.005%) were called active. Inconclusive means that the source gave no clear call. Such entries were picked first, then a sample of the others. The call rests on the fitted dose curve; in most records, active means well fitted inhibition curve with a large enough effect; inconclusive means small, poorly fitted or top-dose-only effect, or effect the other way, or another doubt; inactive means no such curve, though single readings can be large or run the other way. No potency is given beside an inconclusive call; the fits are too rough.
# Biological target: Lysosomal alpha-glucosidase (Homo sapiens) (UniProt P10253)
# Assay: qHTS Assay for Inhibitors of Human alpha-Glucosidase as a Potential Chaperone Treatment of Pompe Disease;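 on activity change, negative = inhibition: plate controls were uninhibited enzyme wells for no effect and no-enzyme background for full effect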
# Conditions: purified human GAA, 4-MU-alpha-glucoside fluorescence; activity change, negative = inhibition: at 76.9 µM (top of the series) unless noted
# How it was run: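 Read-out is 4-methylumbelliferone fluorescence (Ex 365/Em 440 nm) after NaOH/glycine stop at pH 10. Enzyme 4 nM, substrate 400 uM, pH 5.0 citrate buffer, 20 min room temperature; AC50 from Hill-equation concentration-response.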
# Potency means the concentration at half of the fitted maximal effect; tags describe the fitted curve by direction and shape.
Compound,Potency,"activity change, negative = inhibition"
COC(=O)C1=C(NC(=O)COc2ccc3ccccc3c2)CCS1,"inconclusive [activator, single point]",
CC(C)c1nc(NCCN2CCOCC2)c(C#N)c2c1COC(C)(C)C2,"inconclusive [inhibitor, single point]",
COc1ccccc1NC(=O)CSc1nnc(Cn2cnc3ccccc32)o1,"inconclusive [inhibitor, single point]",
Cc1ccccc1N(CC(=O)Nc1ccc(S(=O)(=O)N2CCOCC2)cc1)S(C)(=O)=O,"inconclusive [inhibitor, partial curve]",
COc1ccc(C2CC(c3c(-c4ccccc4)c4cc(Cl)ccc4[nH]c3=O)=NN2C(=O)CCC(=O)O)cc1 (configuration not stated),"inconclusive [inhibitor, full curve, poor fit]",
COc1ccccc1C(=O)N1CCc2ccccc21,,inconclusive: -15% [inhibitor]
Cn1cc(/C=N\O)nc2c(=O)n(-c3ccccc3)c(=O)nc1-2,,inconclusive: 24.5% [activator]
Cc1nc(-c2cccc(S(=O)(=O)N3CCOCC3)c2)cs1,"inconclusive [inhibitor, partial curve, poor fit]",
O=C(NCCn1ccc2ccccc21)c1ccc(S(=O)(=O)N2CCCCC2)cc1,"inconclusive [inhibitor, single point]",
COc1ccc(/C=C/c2nnc(NC(=O)CSc3ccc(Cl)cc3)s2)cc1,"inconclusive [activator, full curve]",
CC(=O)Nc1ccc(NC(=S)Nc2ccccc2)cc1,"inconclusive [inhibitor, single point]",
CCOc1ccc(NC(=O)CCN2CCN(S(=O)(=O)c3cc(Cl)ccc3OC)CC2)cc1,"inconclusive [inhibitor, partial curve, poor fit]",
O=C(Oc1cc2oc(=O)c3c(c2cc1Cl)CCCC3)c1ccco1,"inconclusive [activator, partial curve]",
Cc1cc(C)c(C#N)c(N2CCCC2)n1,,inconclusive: 15.7% [activator]
O=S(=O)(NCc1ccco1)c1cccc(S(=O)(=O)N2CCOCC2)c1,,inactive: -4.77%
CC(C)N1CCN(Cc2ccc3c(c2)Cc2ccccc2-3)CC1CCO (configuration not stated),,inconclusive: 19% [activator]
COc1cccc(OC)c1C(=O)N1CCN(S(=O)(=O)c2ccc(C)cc2)CC1,"inconclusive [inhibitor, partial curve]",
CCOC(=O)c1ccc(N2C(=O)CC(N(Cc3ccc4c(c3)OCO4)C(=O)Nc3ccccc3)C2=O)cc1 (configuration not stated),,inconclusive: -21% [inhibitor]
O=C(NC(=S)Nc1ccc(N2CCOCC2)cc1)c1cccc([N+](=O)[O-])c1,"inconclusive [inhibitor, full curve, poor fit]",
O=C(O)CC1COc2ccccc2N1C(=O)c1ccccc1Cl (configuration not stated),,inconclusive: -15.1% [inhibitor]
O=C1CC(N2CCC(c3nc4ccccc4o3)CC2)C(=O)N1c1ccc(Cl)c(C(F)(F)F)c1 (configuration not stated),,inconclusive: -21.9% [inhibitor]

Compound,Potency,"activity change, negative = inhibition"
COc1ccc2oc(=O)c(C(=O)NCC3CCCO3)cc2c1 (configuration not stated),"inconclusive [activator, single point]",
COc1cccc(-n2c(C)nnc2SCC#N)c1,"inconclusive [inhibitor, single point]",
Cc1cccc(C)c1NC(=S)N(Cc1ccco1)C1CCN(C(C)C)CC1,,inactive: -5.56%
O=C(NCc1cccs1)c1ccc(CS(=O)(=O)c2ccc(Cl)cc2)o1,,inconclusive: -15.1% [inhibitor]
CCCN1CNc2c(c(=O)[nH]c(=S)n2CCc2ccccc2)C1,"inconclusive [activator, partial curve]",
Cc1ccc(CCNC(=O)c2coc3nc4ccccc4nc23)cc1,"inconclusive [activator, single point]",
O=C(Nc1nc2nc(-c3ccccc3)cc(-c3ccccc3)n2n1)c1ccco1,"inconclusive [inhibitor, partial curve]",
Cc1ccc(C(NC(=O)C2CCCCC2)c2c(O)ccc3ccccc23)cc1 (configuration not stated),"inconclusive [inhibitor, partial curve, poor fit]",
CCN1CCn2c3c(c4cc(C)ccc42)CCCC31 (configuration not stated),,inconclusive: -17.1% [inhibitor]
CC(C)(C)c1ccccc1OCCOCCNCc1ccccc1,"inconclusive [inhibitor, single point]",
Cn1c(=O)n(Cc2ccccc2Cl)c2ccccc21,,inconclusive: -18.4% [inhibitor]
CC1(C)CC(=O)C/C(=N\NC(=O)C2C3CCCCC32)C1 (configuration not stated),,inconclusive: 15.8% [activator]
CCOC(=O)c1ccc(NC(=O)CSc2nc3c(c(=O)n2CC)SC(C)C3)cc1 (configuration not stated),"inconclusive [inhibitor, single point]",
CC(NC(=O)CSc1ccccc1C(=O)O)C1CC2CCC1C2 (configuration not stated),,inconclusive: 15.5% [activator]
O=C(COc1cccc(C(F)(F)F)c1)Nc1ccc(S(=O)(=O)N2CCCC2)cc1,"inconclusive [inhibitor, partial curve]",
Cc1ccccc1-c1ccc(=O)n(CC(=O)Nc2ccc(S(=O)(=O)N(C)C)cc2)n1,,inconclusive: 5.87% [activator]
CCOC(=O)N1CCN(c2c(Nc3cc(C)[nH]n3)c(=O)c2=O)CC1,,inconclusive: -16% [inhibitor]
CCOc1cc(N2CCOCC2)c(OCC)cc1NC(=O)COC(=O)c1cc(C)cc(C)c1,"inconclusive [inhibitor, full curve]",
O=C(Nc1ncccn1)c1ccc([N+](=O)[O-])o1,"inconclusive [activator, partial curve]",
CCS(=O)(=O)NCCc1csc(-c2cccnc2)n1,"inconclusive [inhibitor, partial curve]",
CN(C)c1nc(N)nc(CSc2ncc(Cl)cc2Cl)n1,,inconclusive: -16.1% [inhibitor]
